Measurements taken from PubChem BioAssay (Tox21).
“And” between values parts separate entries of the source, which are not always exact repeats. Equal entries are not always repeated. Inconclusive results, whose numbers are uncertain, are shown with a selection of clear calls. For part of these data: Potencies of inconclusive entries are doubtful fits and often do not repeat. Some compounds were tested as several samples or in several runs, with calls that do not always agree. The source made the active and inactive calls. Unless noted, the call rests on the fitted dose curve; in most records, active means well fitted curve in the direction sought with a large enough effect in the repeat runs; inconclusive means weak or mixed curves; inactive means no such curve, though single readings can be large; an effect the other way counts as inactive or inconclusive.
On the % scale 0 is the no-effect control and ±100 the full control effect; tags describe the fitted curve by direction and shape.

Assay: qHTS assay to identify small molecule antagonists of the estrogen related receptor (ERR) signaling pathway from Tox21 library (AID 1224848); further: nearly all actives have a fitted effect of over 50% in size; further: potency means the concentration at half of the fitted maximal effect
Conditions: ERR reporter cell line, luciferase antagonist mode, 18 h; series mostly up to 92.4 µM; activity, negative = inhibition: at the top concentration
Procedure, shortened: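 Luciferase luminescence (ONE-Glo, 30 min room temperature) was the read-out. Cells of the NTP-supplied ERR line, 2,000 per well, were given 6 h at 37 C before compound addition in DMSO and 18 h exposure at 37 C.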
With `O=C(Nc1ccccc1-c1ccc(Cl)cc1)c1cccnc1Cl` the Potency was active: 32.5 µM. In the case of `COC1=CC(=O)O[C@@H](CCc2ccccc2)C1`, the Potency is reported as inconclusive: 80.1 µM [inhibitor, partial curve, poor fit]. With `CC(C)NC(=O)N1CC(=O)N(c2cc(Cl)cc(Cl)c2)C1=O` the Potency was inconclusive: 61.1 µM [inhibitor, partial curve]. In the case of `CC(=O)[O][Pb]([c]1ccccc1)([c]1ccccc1)[c]1ccccc1`, the Potency is reported as active: 0.545 µM. In the case of `CCOP(=S)(OCC)SC(CCl)N1C(=O)c2ccccc2C1=O` (configuration not stated), the Potency is reported as inconclusive: 34.4 µM [inhibitor, partial curve, poor fit]. For `ClC(Cl)=C(c1ccc(Cl)cc1)c1ccc(Cl)cc1`, the Potency was inconclusive: 78.8 µM [inhibitor, single point] and inactive. With `CCCCOCN(C(=O)CCl)c1c(CC)cccc1CC` the Potency was active: 27.3 µM.

Assay: qHTS assay to identify small molecule agonists of the estrogen related receptor (ERR) signaling pathway from Tox21 library (AID 1224849; calls by dose curve; further: nearly all actives have a fitted effect of over 15% in size)
Conditions: ERR reporter cell line, ONE-Glo luciferase, 18 h; at 92.4 µM (top of the series)
Procedure, shortened: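 Quantitative HTS in agonist format: NTP ERR cell line, compounds transferred in DMSO after 6 h plating, 18 h incubation at 37 C, ONE-Glo luminescence endpoint.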
With `CCCCOC(=O)c1ccccc1C(=O)OCc1ccccc1` the activity change, positive = activation was inconclusive: 4.07% [phenotype inactive]. In the case of `OC(c1ccc(Cl)cc1)(c1ccc(Cl)cc1)C(Cl)(Cl)Cl`, the activity change, positive = activation is reported as inconclusive: 17.4%. In the case of `Oc1ccc(-c2ccccc2)cc1`, the activity change, positive = activation is reported as inconclusive: -23%.

Assay: qHTS RealTime-Glo MT Cell Viability Assay in HepG2 cells - 24 hour (AID 1224867); further: nearly all actives have a fitted effect of over 50% in size; further: potency means the concentration at half of the fitted maximal effect
Conditions: RealTime-Glo luminescence; series mostly up to 76.8 µM; activity change, negative = cytotoxicity: at the top concentration
Procedure, shortened: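 Cells + NanoLuc/prosubstrate dispensed (600 cells/well) → 5 h at 37 C/5% CO2 → compounds in DMSO transferred → 40 h incubation at 37 C, luminescence read at 0, 8, 16, 24, 32, 40 h.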
For `CCCCCCCc1ccc(O)cc1`, the Potency was inconclusive: 49 µM [falling, partial curve, poor fit]. With `Cc1cc(C(C)(C)c2cc(C)c(O)c(C)c2)cc(C)c1O` the Potency was inconclusive: 53.1 µM [falling, partial curve, poor fit]. In the case of `Clc1ccc(C(Cl)(Cl)Cl)cc1Cl`, the Potency is reported as inconclusive: 53.8 µM [falling, single point]. In the case of `CCCCOC(=O)c1ccccc1C(=O)OCc1ccccc1`, the Potency is reported as “inactive”. For `CC(C)OC(=O)C(O)(c1ccc(Cl)cc1)c1ccc(Cl)cc1`, the Potency was inconclusive: 43.6 µM [falling, partial curve, poor fit]. For `OC(c1ccc(Cl)cc1)(c1ccc(Cl)cc1)c1cccnc1`, the Potency was inconclusive: 49 µM [falling, partial curve]. For `CCCCOCN(C(=O)CCl)c1c(CC)cccc1CC`, the Potency was inconclusive: 49 µM [falling, partial curve, poor fit]. For `C=CCC1=C(C)C(OC(=O)C2C(C=C(C)C)C2(C)C)CC1=O` (configuration not stated), the Potency was inconclusive: 49 µM [phenotype inactive, partial curve, poor fit].

Assay: qHTS RealTime-Glo MT Cell Viability Assay in HEK293 cells - 32 hour (AID 1224868); further: nearly all actives have a fitted effect of over 50% in size; further: potency means the concentration at half of the fitted maximal effect; on activity change, negative = cytotoxic: top concentration of the series differs between compounds
Conditions: RealTime-Glo luminescence; series mostly up to 76.8 µM; activity change, negative = cytotoxic: at the top concentration
Procedure, shortened: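 Tox21 10K qHTS, HEK293, 600 cells/well, RealTime-Glo reagent co-dispensed with cells; 5 h preincubation, compound by pintool, 37 C, luminescence at 0–40 h.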
For `O=C(Nc1ccccc1-c1ccc(Cl)cc1)c1cccnc1Cl`, the Potency was inconclusive: 46.3 µM [cytotoxic, partial curve]. With `CC1(C)[C@H](/C=C2\CCSC2=O)[C@@H]1C(=O)OCc1coc(Cc2ccccc2)c1` the Potency was inconclusive: 49 µM [cytotoxic, single point]. With `O=S1OC[C@@H]2[C@H](CO1)[C@]1(Cl)C(Cl)=C(Cl)[C@@]2(Cl)C1(Cl)Cl` (some centres not stated) the Potency was inconclusive: 49 µM [cytotoxic, partial curve]. With `CCCCNC(=O)n1c(NC(=O)OC)nc2ccccc21` the Potency was inconclusive: 9.72 µM [cytotoxic, full curve] and inconclusive: 9.77 µM [cytotoxic, full curve]. In the case of `CCCCOC(=O)c1ccccc1C(=O)OCc1ccccc1`, the Potency is reported as inconclusive: 27.5 µM [cytotoxic, partial curve, poor fit] and inconclusive: 61.6 µM [cytotoxic, partial curve, poor fit]. For `CC(C)Oc1cc(-n2nc(C(C)(C)C)oc2=O)c(Cl)cc1Cl`, the Potency was inconclusive: 43 µM [cytotoxic, partial curve]. In the case of `CN(C)c1ccc(C(=O)c2ccc(N(C)C)cc2)cc1`, the Potency is reported as inconclusive: 3.85 µM [cytotoxic, full curve]. With `COC1=CC(=O)O[C@@H](CCc2ccccc2)C1` the “activity change, negative = cytotoxic” value was inactive: -14.5%. For `CC(C)(C)c1cc(O)ccc1O`, the Potency was inconclusive: 4.9 µM [rising, full curve] and inconclusive: 6.92 µM [rising, full curve]. For `OC(c1ccc(Cl)cc1)(c1ccc(Cl)cc1)C(Cl)(Cl)Cl`, the Potency was inconclusive: 49 µM [cytotoxic, partial curve]. For `c1ccc(P(c2ccccc2)c2ccccc2)cc1`, the Potency was inconclusive: 31.5 µM [cytotoxic, partial curve]. In the case of `Oc1ccc(-c2ccccc2)cc1`, the Potency is reported as inconclusive: 24.2 µM [cytotoxic, partial curve] and inconclusive: 21.9 µM [cytotoxic, partial curve]. For `CC(C)NC(=O)N1CC(=O)N(c2cc(Cl)cc(Cl)c2)C1=O`, the Potency was inconclusive: 55 µM [cytotoxic, single point] and inconclusive: 43.6 µM [cytotoxic, single point]. In the case of `CC(=O)[O][Pb]([c]1ccccc1)([c]1ccccc1)[c]1ccccc1`, the Potency is reported as active: 0.49 µM. In the case of `CC(C)N1C(=O)N(c2ccccc2)CSC1=NC(C)(C)C`, the Potency is reported as active: 21.9 µM. For `CC1(C)C(C=C(Cl)Cl)C1C(=O)OC(C#N)c1cccc(Oc2ccccc2)c1` (configuration not stated), the Potency was “inactive”. With `OC(c1ccc(Cl)cc1)(c1ccc(Cl)cc1)c1cccnc1` the Potency was inconclusive: 43.6 µM [cytotoxic, partial curve]. For `Clc1ccc(-c2ccc(Cl)c(Cl)c2Cl)c(Cl)c1Cl`, the Potency was inconclusive: 58.7 µM [cytotoxic, partial curve, poor fit]. For `O=C/C=C/c1ccccc1`, the Potency was “inactive”. In the case of `ClC(Cl)=C(c1ccc(Cl)cc1)c1ccc(Cl)cc1`, the Potency is reported as inconclusive: 56.3 µM [cytotoxic, single point] and inconclusive: 54.9 µM [cytotoxic, single point]. For `Clc1ccc(C(c2ccccc2Cl)C(Cl)(Cl)Cl)cc1` (configuration not stated), the Potency was active: 49.3 µM. With `CCCCCCCCCc1ccc(O)cc1` the Potency was active: 9.87 µM and active: 5.49 µM. For `CO/N=C(/C1=NOCCO1)c1ccccc1Oc1ncnc(Oc2ccccc2Cl)c1F`, the Potency was inconclusive: 48.9 µM [cytotoxic, single point]. With `Cc1ccc(N=C=O)cc1N=C=O` the Potency was inconclusive: 38.9 µM [rising, partial curve].
